Reference: PubChem BioAssay AID651820 (National Center for Advancing Translational Sciences (NCATS), 2012)
Where “and” joins values, the source holds several entries; their conditions need not be identical. Equal values may be shown once. Hit rate of the full screen: of about 340,000 compounds, about 12,000 (3.5%) were called active. Inconclusive means that the source gave no clear call. Such entries were picked first, then a sample of the others. Calls come from the whole dose curve; as a rule, active = well fitted inhibition curve with a large enough effect; inconclusive = small, poorly fitted or top-dose-only effect, or another doubt; inactive = no such curve, though single readings can be large or run the other way. Potencies beside an inconclusive call are fits to weak or partial responses and may not hold up.

assay: qHTS Assay for Inhibitors of Hepatitis C Virus (HCV); conditions: Huh7.5.1 HCVcc-Cre (HCVcc is cell-culture hepatitis C virus) infection, luciferase reporter, 44 h; activity change, negative = inhibition: at 41.8 µM (top of the series) unless noted
Summary of the method: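 Seed cells (1,000/well) for 4 h; treat with compound and infect with HCVcc-Cre, moi about 0.5. Incubate 44 h, then detect luciferase activity.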
% is set by controls: 0 for no effect and ±100 for the full control effect; potency is the fitted concentration of half-maximal effect; tags give direction and shape of the fitted curve.

Row | SMILES | Potency | activity change, negative = inhibition
1 | Cc1cc(=O)oc2cc(NC(=O)c3ccccc3OC(F)F)ccc12 | inconclusive: 5.62 µM [inhibitor, single point] | 
2 | CCn1ccc(C(=O)N2CCOCC2)n1 |  | inactive: 14.4%
3 | C=CCn1c(O)c(N=NC(=S)Nc2cccc(OC)c2)c2ccccc21 | inconclusive: 2.51 µM [inhibitor, full curve] | 
4 | CC(C)(c1ccccc1)c1ccc(OCCCNCCO)cc1 | inconclusive: 11.2 µM [inhibitor, single point] | 
5 | Cc1ccc(S(=O)(=O)N(C)C)cc1NC(=O)C1Cc2ccccc2CN1C(=O)c1ccco1 (stereo unspecified) |  | inactive: 6.19%
6 | O=C1CCC(=O)N1c1ccc(-c2nc3sc4c(c3c(=O)o2)CCC4)cc1 | inconclusive: 11.2 µM [inhibitor, partial curve] | 
7 | O=C(NN=C1CCCCCCCCCCC1)c1ccncc1 |  | inactive: 8.31%
8 | COc1cc(C(=O)Nc2sc3c(c2C#N)CCN(C(C)=O)C3)cc(OC)c1OC | inconclusive: 8.91 µM [inhibitor, partial curve] | 
9 | COc1cccc(-c2nc(CS(=O)(=O)CC(=O)N3CCc4ccccc4C3)c(C)o2)c1 | inconclusive: 22.4 µM [inhibitor, single point] and inconclusive: 12.6 µM [inhibitor, single point] | 
10 | CCC(C(=O)NC(C)(C)C)N(Cc1ccc(F)cc1)C(=O)c1snc(C(N)=O)c1N (stereo unspecified) |  | inactive: -8.32%
11 | Fc1ccc(NC(=S)N2CCc3[nH]c4ccccc4c3C2)cc1 | inconclusive: 28.2 µM [inhibitor, single point] | 
12 | Cc1ccccc1NC(=O)N(CCc1nc2ccccc2[nH]1)Cc1ccccc1 | inconclusive: 31.6 µM [inhibitor, single point] | 
13 | O=C(NCc1cccc(Cl)c1)c1ccc(CS(=O)Cc2ccc(Cl)cc2)o1 (stereo unspecified) | inconclusive: 31.6 µM [inhibitor, single point] | 
14 | CC(C)c1ccc(C(O)P(=O)(OCc2ccccc2)c2ccc(N(C)C)cc2)cc1 (stereo unspecified) | inconclusive: 14.1 µM [inhibitor, single point] | 
15 | Cc1cc(NC(=O)c2cc(-c3ccc(C)c(C)c3)nc3ccccc23)no1 | inconclusive: 2.24 µM [inhibitor, full curve, poor fit] | 
16 | CC1(C)CC(NC(=O)c2cc([N+](=O)[O-])cc([N+](=O)[O-])c2)CC(C)(C)N1 | inconclusive: 20 µM [inhibitor, partial curve, poor fit] | 
17 | CCCCC(=O)Nc1nc(C)c(-c2csc(Nc3ccc(Cl)cc3)n2)s1 | active: 8.91 µM | 
18 | COc1ccc([C@@H]2CC=C(C(=O)O)[C@H](c3cccc(Cl)c3)N2S(=O)(=O)c2ccc(C)cc2)cc1OC |  | inactive: 23.9%
19 | CCn1cc(Br)c(C(=O)Nc2ccc(C(=O)OC(C)C)cc2)n1 | inconclusive: 3.98 µM [inhibitor, partial curve] | 
20 | O=C(Nc1c2c(nc3ccccc13)CCCC2)c1ccccc1F | inconclusive: 31.6 µM [inhibitor, single point] | 
21 | CN(C(=O)COC(=O)c1ccc(Br)c(S(=O)(=O)N2CCOCC2)c1)C1CCCCC1 |  | inactive: -7.24%
22 | C[n+]1ccc(/C=C/c2c[nH]c3ccc(F)cc23)cc1 | active: 1 µM | 

Row | SMILES | Potency | activity change, negative = inhibition
23 | CCOc1cc(CN2CCC(CO)(Cc3cccc(C(F)(F)F)c3)CC2)ccc1OC | inconclusive: 11.2 µM [inhibitor, partial curve] | 
24 | CCN(C[C@H]1N[C@@](CC)(C(=O)OC)[C@H]2C(=O)N(C)C(=O)[C@@H]12)S(=O)(=O)c1ccc(F)cc1 | inconclusive: 31.6 µM [inhibitor, single point] | 
25 | CC(C)CNc1oc(-c2ccc(F)cc2)nc1C#N | inconclusive: 10 µM [inhibitor, partial curve] | 
26 | COc1ccc(S(=O)(=O)N2CCCCC2)cc1NC(=O)c1ccc([N+](=O)[O-])o1 | active: 10 µM | 
27 | COc1cc(C2Nc3cccc4cccc(c34)N2)ccc1OC(C)=O | inconclusive: 31.6 µM [inhibitor, single point] | 
28 | CC(C)n1c(=S)[nH]c2cc(Cl)ccc21 |  | inactive: 2.77%
29 | CC(C)(CNC(=O)c1ccc([N+](=O)[O-])c(Cl)c1)CNC(=O)c1ccc([N+](=O)[O-])c(Cl)c1 | inconclusive: 31.6 µM [inhibitor, single point] | 
30 | COc1ccc(C2Nc3ccccc3C(=O)N2Cc2ccccc2)cc1Cn1nnc2ccccc21 (stereo unspecified) | inconclusive: 31.6 µM [inhibitor, single point] | 
31 | CCOc1cc2[nH]c(=O)n(Cc3ccccc3)c(=O)c2cc1OCC | inconclusive: 17.8 µM [inhibitor, partial curve, poor fit] | 
32 | COc1cc(C(=O)N/N=C/c2ccc(OC)c(CN3CCN(c4ccc(F)cc4)CC3)c2)ccc1O | active: 25.1 µM | 
33 | O=C(Nc1ccc(Cl)c(Cl)c1)C1CC(=O)N(c2ccc(Br)cc2)C1 (stereo unspecified) | inconclusive: 31.6 µM [inhibitor, single point] | 
34 | COc1cc2c(cc1OC)C1=C(C#N)COCN1CC2 |  | inactive: -9.79%
35 | Cc1ccc(OCCn2nc3ccccc3n2)c(C)c1 | inconclusive: 11.2 µM [inhibitor, partial curve] | 
36 | O=C1NC(=O)N(Cc2ccco2)C(=O)/C1=C/C=C/c1ccco1 |  | inactive: -1.09%
37 | CCCCC(=O)N(CCOC)c1nnc(-c2cccnc2)s1 |  | inactive: 24.2%
38 | CCN(CC)c1ccc(C=C2C(=O)OC(c3ccccc3)OC2=O)cc1 (stereo unspecified) |  | inactive: -6.35%
39 | Cc1ccc(S(=O)(=O)N2CCN(C(=O)CN3C(=O)NC(C)(c4ccc5ccccc5c4)C3=O)CC2)cc1 (stereo unspecified) | inconclusive: 31.6 µM [inhibitor, single point] | 
40 | CCCOc1ccc(Cn2c(C)nc([N+](=O)[O-])c2SCC(O)COC)cc1[N+](=O)[O-] (stereo unspecified) |  | inactive: -17.2%
41 | O=C(NCc1nc2ccccc2[nH]1)C1=C[C@H](c2ccccc2)C[C@H](OCc2ccc(CO)cc2)O1 | inconclusive: 5.01 µM [inhibitor, single point] | 
42 | COc1ccc(N2CCN(c3nc(NC(C)(C)C)nc(N4CCCCC4)n3)CC2)cc1 | inconclusive: 8.91 µM [inhibitor, partial curve] | 
43 | O=C(CC(=O)NN=Cc1ccc2c(c1)CCC2)NN=Cc1ccc2c(c1)CCC2 | inconclusive: 31.6 µM [inhibitor, single point] | 
44 | O=C(CSc1nnc2c(n1)[nH]c1ccccc12)Nc1ccc2c(c1)OCO2 | inconclusive: 12.6 µM [inhibitor, single point] | 

Row | SMILES | Potency | activity change, negative = inhibition
45 | COc1ccc(-c2ccc3c(c2)S(=O)(=O)c2cccc(C(=O)N4CCN(c5ccc(Cl)cn5)CC4)c2C3=O)cc1OC | inconclusive: 2.51 µM [inhibitor, partial curve] | 
46 | C=CCn1c(SCC(=O)c2[nH]c(C)c(C(=O)OCC)c2C)nc2scc(-c3ccc(OC)c(OC)c3)c2c1=O | inconclusive: 3.16 µM [inhibitor, partial curve] | 
47 | Cc1ccc(C(=O)c2oc3ccccc3c2N)cc1 | inconclusive: 11.2 µM [inhibitor, single point] | 
48 | CC(C)N(Cc1ccccc1)C(=O)COC(=O)c1ccc(O)cc1 | inconclusive: 20 µM [inhibitor, single point] | 
49 | COc1cccc(C(CCc2cc(OC)c(OC)c(OC)c2)NC(C)=O)c1 (stereo unspecified) |  | inactive: 10.3%
50 | Cc1ccc(C(=O)OCC(=O)Nc2ccccc2C(F)(F)F)cc1S(=O)(=O)N1CCCCC1 | inconclusive: 31.6 µM [inhibitor, single point] | 
51 | O=C(Nc1ccccc1N1CCCC1)c1ccc(Cl)c(S(=O)(=O)N2CCOCC2)c1 | inconclusive: 31.6 µM [inhibitor, single point] | 
52 | CCN1C=C(C(=O)c2ccccc2)C(=O)CC1 |  | inactive: -2.47%
53 | COc1ccc(/C=C(/NC(=O)c2cccs2)C(=O)Nc2ccc(C)cc2)cc1OC | inconclusive: 35.5 µM [inhibitor, single point] | 
54 | O=C(COc1ccccc1)N1CCN(c2nnc(-c3ccccc3)c3ccccc23)CC1 | inconclusive: 14.1 µM [inhibitor, partial curve] | 
55 | Cc1cccc(OCc2nnc(SCC(=O)O)n2-c2ccccc2)c1 |  | inactive: 9.6%
56 | O=C(CSc1nnc(CNc2ccc(F)cc2)o1)N1c2ccccc2Sc2ccccc21 | active: 10 µM | 
57 | CC(C)(C)OC(=O)NCc1ccc(CNC(=O)c2nc[nH]c2C(=O)N2CCN(c3ccccc3)CC2)cc1 | inconclusive: 25.1 µM [inhibitor, single point] | 
58 | COCCNc1oc(/C=C/c2ccccc2OC)nc1S(=O)(=O)c1ccccc1 | inconclusive: 31.6 µM [inhibitor, single point] | 
59 | CCN(c1cccc(C)c1)S(=O)(=O)c1ccc2c(c1)CCN2C(C)=O | active: 11.2 µM | 
60 | Cc1cc(C(=O)CSc2nnc(N)s2)c(C)n1Cc1cccs1 | inconclusive: 2.51 µM [inhibitor, full curve, poor fit] | 
61 | O=[N+]([O-])c1ccc(NN=Cc2cccc(O)c2)nc1 | inconclusive: 31.6 µM [inhibitor, single point] | 
62 | CC1CCCN(C(=O)COC(=O)c2n[nH]c3ccccc23)C1 (stereo unspecified) | inconclusive: 22.4 µM [inhibitor, single point] | 
63 | COc1ccccc1C1CCN(Cc2ccc(Cl)c(Cl)c2)CC1 | inconclusive: 6.31 µM [inhibitor, partial curve, poor fit] | 
64 | COCCN(CC(=O)Nc1ccccc1C(F)(F)F)C(=O)c1ccc(-n2cccn2)cc1 |  | inactive: 10.7%
65 | CCn1c(CC(=O)Nc2ccccc2F)nnc1SCC(=O)Nc1nncs1 |  | inactive: 9.58%
66 | Cc1cc(N2CCOCC2)nc2ccc(NC(=S)NCCN(C)C)cc12 | inconclusive: 10 µM [inhibitor, single point] | 
